Data from the antibiotic and cytotoxicity screens of Wong et al. (2023).
The list shows a part of the results.

How the values were obtained:
HSkMC = human skeletal muscle cells; assay: cytotoxicity call (relative viability < 0.9); settings: 10 µM
HepG2 = assay: cytotoxicity call (relative viability < 0.9); settings: 10 µM
S. aureus RN4220 = assay: growth inhibition call (relative growth <= 0.2); settings: 50 µM

SMILES	cytotoxicity call (HSkMC)	cytotoxicity call (HepG2)	growth inhibition call (S. aureus RN4220)
Cc1noc(C)c1NC(=O)Nc1ccc2c(c1)CC(=O)N([C@@H](C)CO)C[C@H](C)[C@H](CN(C)Cc1ccc(Cl)c(Cl)c1)O2	inactive	inactive	inactive
C[C@H](CO)N1C[C@H](C)[C@@H](CN(C)Cc2ccc(-c3ccccc3)cc2)Oc2c(NC(=O)NC3CCCCC3)cccc2C1=O	inactive	inactive	inactive
C[C@@H]1CN([C@@H](C)CO)C(=O)c2cc(NC(=O)Nc3ccc(F)cc3)ccc2O[C@H]1CN(C)S(=O)(=O)c1cn(C)cn1	inactive	inactive	inactive
CN(C)C(=O)c1cc2c(c(-c3cccc(/C=C/c4ccccc4)c3)n1)[C@H](CCO)N([S@@](=O)C(C)(C)C)C2	inactive	inactive	inactive
C[C@@H]1CCCCO[C@H](CN(C)CC2CC2)[C@H](C)CN([C@@H](C)CO)C(=O)c2cc(NC(=O)CCC(F)(F)F)ccc2O1	inactive	inactive	inactive
O=C(N1CCCC1)N1CCNCC1	inactive	inactive	inactive
Cl.NNc1nncc2ccccc12	inactive	inactive	inactive
COc1ccc(NC(=O)N(C)C[C@H]2OCCCC[C@H](C)Oc3ccc(NC(=O)c4ccncc4)cc3C(=O)N([C@@H](C)CO)C[C@@H]2C)cc1	inactive	inactive	inactive
Cc1cc(Cl)cc2sc(N(Cc3ccccn3)C(=O)c3ccc(S(=O)(=O)N4CCCC4)cc3)nc12	inactive	inactive	inactive
Cc1ccc(S(=O)(=O)Nc2ccc3c(c2)C(=O)N([C@H](C)CO)C[C@@H](C)[C@@H](CN(C)Cc2ccncc2)OCCCC[C@@H](C)O3)cc1	inactive	inactive	inactive
C[C@@H]1CCCCO[C@H](CN(C)S(=O)(=O)c2ccc(Cl)cc2)[C@@H](C)CN([C@H](C)CO)C(=O)c2cc(NC(=O)C3CCCCC3)ccc2O1	inactive	inactive	inactive
C[C@@H]1CN([C@H](C)CO)C(=O)c2c(c3ccccc3n2C)-c2ccccc2CO[C@@H]1CN(C)C(=O)CCC(F)(F)F	inactive	inactive	inactive
CS(=O)(=O)N1C[C@@H]2COC[C@@]2(CN2CCOCC2)C1	inactive	inactive	inactive
C[C@H](CO)N1C[C@H](C)[C@H](CN(C)C(=O)Nc2ccc(F)cc2)Oc2cc(C#CC3(O)CCCC3)ccc2S1(=O)=O	inactive	inactive	inactive
C[C@@H]1CN([C@@H](C)CO)C(=O)c2cc(-c3ccc(C(=O)N(C)C)cc3)cnc2O[C@H]1CN(C)C(=O)CN(C)C	inactive	inactive	inactive
CC(=O)OC[C@H](N)C(=O)O	inactive	inactive	inactive
Cc1cccc(NC(=O)Nc2ccc3c(c2)C(=O)N(C)[C@H]2CC[C@H](CC(=O)NCc4ccccc4Cl)O[C@@H]2CO3)c1	inactive	inactive	inactive
CN1C[C@@H](O)COC[C@H]2O[C@@H](CC(=O)N3CCN(c4ccccc4)CC3)CC[C@@H]21	inactive	inactive	inactive
CC1(C)CN(C(=O)Cn2nccn2)C[C@]1(C)O	inactive	inactive	inactive

SMILES	cytotoxicity call (HSkMC)	cytotoxicity call (HepG2)	growth inhibition call (S. aureus RN4220)
C[C@H](CO)N1C[C@H](C)[C@@H](CN(C)Cc2ccc(C(=O)O)cc2)Oc2ccc(NC(=O)CCN3CCOCC3)cc2C1=O	inactive	inactive	inactive
C[C@@H]1CN([C@H](C)CO)C(=O)CCCn2cc(nn2)CO[C@@H]1CN(C)Cc1ccc2c(c1)OCCN2C	inactive	inactive	inactive
C[C@@H]1CN([C@@H](C)CO)C(=O)c2cccc(NC(=O)Nc3ccc(F)cc3)c2O[C@@H]1CN(C)CC1CCCCC1	inactive	inactive	inactive
CCc1ccc(Nc2c3c(nc4ccccc24)CCC3)cc1	inactive	active	inactive
C[C@H](CO)N1C[C@H](C)[C@H](CN(C)S(C)(=O)=O)Oc2cc(-c3ccccc3F)ccc2S1(=O)=O	inactive	inactive	inactive
C[C@H](CO)N1C[C@H](C)[C@H](CN(C)Cc2ccc(Cl)c(Cl)c2)Oc2c(NC(=O)Nc3ccc4c(c3)OCO4)cccc2C1=O	inactive	inactive	inactive
C[C@@H]1CCCCO[C@@H](CN(C)Cc2ccc(C(F)(F)F)cc2)[C@H](C)CN([C@@H](C)CO)C(=O)c2cc(NC(=O)C3CCCCC3)ccc2O1	inactive	inactive	inactive
Cc1noc(C)c1NC(=O)N(C)C[C@H]1Oc2c(NC(=O)C3CC3)cccc2C(=O)N([C@H](C)CO)C[C@H]1C	inactive	inactive	inactive
CC(C)NC(=O)Nc1ccc2c(c1)C(=O)N([C@H](C)CO)C[C@@H](C)[C@@H](CN(C)C(=O)Nc1ccccc1)OCCCC[C@@H](C)O2	inactive	inactive	inactive
Cc1noc(C)c1NC(=O)N(C)C[C@H]1OCCCC[C@@H](C)Oc2ccc(NC(=O)C3CCCCC3)cc2C(=O)N([C@@H](C)CO)C[C@@H]1C	inactive	inactive	inactive
C[C@H]1CN([C@@H](C)CO)C(=O)Cc2cc(NC(=O)Cc3cn(C)c4ccccc34)ccc2O[C@H]1CN(C)CC1CCCCC1	inactive	inactive	inactive
C[C@H](CO)N1C[C@H](C)[C@@H](CN(C)S(C)(=O)=O)Oc2ccc(NC(=O)CCCCCC(=O)Nc3ccccc3N)cc2CC1=O	inactive	inactive	inactive
O=C(O)CSC(=S)N1CCOCC1	inactive	inactive	inactive
O=C1OCCC=C[C@H]2O[C@@]34C=CCN(c5ccc6ccccc6c5)C(=O)[C@H]3N(CCCCCCO)C(=O)[C@@H]4[C@@H]12	inactive	inactive	inactive
C[C@H](CO)N1C[C@H](C)[C@H](CN(C)CC2CCCCC2)Oc2c(NC(=O)c3ccc(-c4nccs4)cc3)cccc2C1=O	inactive	inactive	inactive
O=C(C[C@@H]1C=C[C@@H](NS(=O)(=O)c2ccc(F)cc2)[C@H](CO)O1)NCCN1CCCCC1	inactive	inactive	inactive
C[C@H](CO)N1C[C@H](C)[C@@H](CN(C)S(=O)(=O)c2ccc(Cl)cc2)Oc2c(NS(C)(=O)=O)cccc2C1=O	inactive	inactive	inactive
C[C@@H]1CN([C@@H](C)CO)C(=O)c2cc(NS(=O)(=O)c3ccc(Cl)cc3)ccc2O[C@H]1CN(C)Cc1ccc(C(F)(F)F)cc1	inactive	inactive	inactive
C[C@@H]1CCCCO[C@H](CN(C)S(=O)(=O)c2cn(C)cn2)[C@H](C)CN([C@H](C)CO)C(=O)c2cc(N(C)C)ccc2O1	inactive	inactive	inactive

SMILES	cytotoxicity call (HSkMC)	cytotoxicity call (HepG2)	growth inhibition call (S. aureus RN4220)
C[C@H](CO)N1C[C@H](C)[C@H](CN(C)Cc2ccc(C(=O)O)cc2)Oc2ccc(NC(=O)Cn3cnnn3)cc2C1=O	inactive	inactive	inactive
CCN1CCO[C@@]2(O)C=CC(=O)C=C12	inactive	inactive	inactive
COc1ccc2c3c(n(c2c1)C)[C@H](CO)N(C[C@]13CN(C1)C(=O)C1CC1)C(=O)CN1CCOCC1	inactive	inactive	inactive
C[C@@H]1CN([C@H](C)CO)C(=O)Cc2cc(NS(=O)(=O)c3cccs3)ccc2O[C@@H]1CN(C)S(C)(=O)=O	inactive	inactive	inactive
CCO[C@@H]1OC(C(=O)N2CCOCC2)=C[C@H](c2ccccc2)[C@H]1CCCOC(=O)NCCCCCC(=O)NO	inactive	inactive	inactive
COC(=O)[C@@H](C)n1nc(-c2ccccc2)c2ccccc21.COC(=O)[C@H](C)n1nc(-c2ccccc2)c2ccccc21	inactive	inactive	inactive
C=CCOC(=O)[C@H]1[C@@H]2C(=O)O[C@@H](c3ccccc3)[C@@H](c3ccccc3)N2[C@@H](c2ccc(OCCOC(=O)[C@H]3C[C@H]4C(=O)N[C@@H](CCCCN(C)C)C(=O)N4[C@H]3c3ccc(O)cc3)cc2)[C@]12C(=O)Nc1ccc(I)cc12	inactive	inactive	inactive
COc1ccc(NC(=O)Nc2ccc3c(c2)C(=O)N([C@@H](C)CO)C[C@H](C)[C@H](CN(C)C(=O)c2ccccc2)OCCCC[C@@H](C)O3)cc1	inactive	inactive	inactive
CN(C)C(=O)N1CCNCC1	inactive	inactive	inactive
Cc1noc(C)c1NC(=O)N(C)C[C@@H]1Oc2ccc(NC(=O)c3ccncc3)cc2CC(=O)N([C@@H](C)CO)C[C@@H]1C	inactive	inactive	inactive
C[C@@H]1CCCCO[C@H](CN(C)C)[C@H](C)CN([C@@H](C)CO)C(=O)c2cc(NC(=O)CCCN(C)C)ccc2O1	inactive	inactive	inactive
Cc1noc(C)c1NC(=O)Nc1cccc2c1O[C@@H](CN(C)C(=O)Nc1ccc(C(F)(F)F)cc1)[C@H](C)CN([C@@H](C)CO)C2=O	inactive	inactive	active
C[C@@H]1CCCCO[C@H](CN(C)Cc2ccc(C(=O)O)cc2)[C@H](C)CN([C@@H](C)CO)C(=O)c2cc(NS(=O)(=O)c3ccccc3)ccc2O1	inactive	inactive	inactive
O=C1CSC(=O)N1	inactive	inactive	inactive
CNC(=O)c1ccccc1N	inactive	inactive	inactive
Cc1noc(C)c1NC(=O)N(C)C[C@H]1Oc2ccc(NS(=O)(=O)c3ccccc3)cc2CC(=O)N([C@@H](C)CO)C[C@H]1C	inactive	inactive	inactive
C[C@@H]1CCCCO[C@H](CN(C)S(=O)(=O)c2ccc(F)cc2)[C@H](C)CN([C@@H](C)CO)C(=O)c2cc(NC(=O)Nc3ccc(F)cc3)ccc2O1	inactive	inactive	inactive
CN(C)CCNC(=O)COc1c2cccc1Cc1cccc(c1OCC(=O)NCCN(C)C)Cc1cccc(c1OCC(=O)NCCN(C)C)Cc1cccc(c1OCC(=O)NCCN(C)C)C2	inactive	inactive	inactive
CC(C)NC(=O)N(C)C[C@@H]1Oc2ccc(NC(=O)Nc3ccc4c(c3)OCO4)cc2CC(=O)N([C@@H](C)CO)C[C@H]1C	inactive	inactive	inactive
